# In the supplement of paper PMC11417369:
# The list shows a part of the results.
# Tested on: PfSIP2 AP2 domain 1 (GST-tagged)
# Experiment: gcPBM binding intensity (ln(normalized median fluorescence intensity)); higher = stronger DNA binding
# In short: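 Plasmodium falciparum DNA-binding domains carrying a GST tag were expressed in E. coli and applied for 1 h, at about 25 μg on average, to an Agilent 4 × 180k array. The array held primer-extended double-stranded 36-bp intergenic genomic probes together with negative controls, and binding took place in 1× PBS with 1% milk, 0.2 mg/ml BSA, 0.5% salmon testes DNA and 0.03% Triton X-100. An Alexa488 anti-GST antibody detected bound protein, and the array was scanned at 488 nm. Binding intensity is taken as the highest Masliner-normalised natural-log median intensity across replicate spots of either probe orientation.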
row,Sequence,gcPBM binding intensity (ln)
1,TGACTACATAAAATGACACACACAAACTTTAAAATT [CACACA_site9151],6.9
2,ATATATTTTTAGCACAGTACAATATAATTAAATATA [XGTACX_site6779],7.03
3,AAAAGTTGTTTATAATGTACAAGGTAGAAAAAAACA [XGTACX_site1454],7.28
4,TAAATGGATTGTTCAGGTACACATAAATATGATATT [XGTACX_site6963],6.85
5,ATATTATATAATAATGCATGCACCTTATTTTCATTT [TGCATGCA_site405],11.3
6,AACAAAATAAAAATAACACACACATTTATATATATA [CACACA_site8313],8.11
7,ATTATATTATTTTAAAGTACACACATATATTAATAT [XGTACX_site4769],7.24
8,TTTTTATTATTTAAATGTACATATAAATATATATAT [XGTACX_site6870],8.05
9,AAGAAGAAACGGAAAAGTACAAAGAAGAAATAAGTA [XGTACX_site3680],6.85
10,CTTACAGACATATATACACACATGTATATTTTATAT [CACACA_site549],6.87
11,TTTTCTTTTCTCTTCTTTTTCTCCCATTATTAATCT [XGTACX_negctrl_site406],6.7
12,ATGTTTTTAATTTATTGTACATTAATTTGTATTATT [XGTACX_site253],7.25
13,GAGGATGCCTATGGCACACATTATAAAACTGTCGCT [CACACA_site4322],6.57
14,CATAAAATTGTGAAGTGTACATATTTTTAAATATAA [XGTACX_site8986],7.06
15,ATAACTTTATTTTCCTGTACACACATTTGACATATT [XGTACX_site7192],7.38
16,ATATATAATATAAGATGTACAATAAAATCTATATAT [XGTACX_site546],7.01
17,AGAAATATCTAATTGTGTACTCAAGAAAAAGTTACG [XGTACX_site372],7.22
18,GAATAAAAATTTTAATGTACATATTTTTTATTTATA [XGTACX_site8935],7.08
19,ATATTTTATATGTTCACACATACATAAACATATTTT [CACACA_site4948],7.15
20,GGTAGTTATTATCTCCGTACTTATAAAGAAAAAAGG [XGTACX_site4674],7.18
21,TACAAATATATAAAATGTACATATATATACATATTA [XGTACX_site3029],6.92
22,TTTATTTTCATATGAACACACATATAAATATTATAA [CACACA_site7172],7.15
23,AAAAAATATAAAAAAAGTACACAAAAACTACAAAAA [XGTACX_site2677],6.96

row,Sequence,gcPBM binding intensity (ln)
1,AAAAAGAGGAAAAAGATAAAGAAATTAAAGGAGAGA [CACACA_negctrl_site423],6.69
2,TTTAATCATTTTATTTGTACTCATAAAAAATATAAT [XGTACX_site5537],7.29
3,TCTGTAAACATATTCACACACATAAATTCGCATATA [CACACA_site1866],6.95
4,ACAAAATAATTGTTTACACACCCATTTGTAATTTTA [CACACA_site3615],6.88
5,TATCATTGTTCATGCTTGCACTTTTGTTACTGTTCC [GTGCAC_site9425],8.06
6,GAAAATTTATATTGCACACATAGGGAATAAAAAAAA [CACACA_site2146],7.24
7,AAAATGAAATATGTTATATATATATATATATATATA [CACACA_negctrl_site1752],9.72
8,TGTATGAAAATAAATGCATGCCAAATATATATATAT [TGCATGCA_site132],8.82
9,TAATTTCCTTAAGAATGTACTTACATTTTATTATTT [XGTACX_site5998],6.72
10,ATGGACAAGTTAAACGCACACAAATATATACAGACA [CACACA_site1652],7.38
11,TAATATGAAATGTGTACACACGCACCCACAAAAAAA [CACACA_site8949],10.7
12,GTTTATGTATTATTATGTACGTATCATAATATATAT [XGTACX_site2385],7.51
13,ACTTTATTTTCCTGTACACACATTTGACATATTAAA [CACACA_site3378],8.2
14,CACCAAACTAAATGTACACACATACATAAATATAAA [CACACA_site4765],7.47
15,AAAAACAAAAAAAAAACACACAATTCTAGTTATTTT [CACACA_site2767],6.68
16,TTTTTTTTCCTAATGTGTACTAAAAATGAACAATAA [XGTACX_site5248],7.25
17,TTTTTTATTTTATTTTATTTTTATTTTTTTTTTTTT [GTGCAC_negctrl_site596],6.94
18,AACATTATTTTGTGTACACATTCGGTTATATTATAT [CACACA_site5628],7.31
19,ATATTTTTTTCATAGACACACACAATATATCTGTTT [CACACA_site8993],7.18
20,AAAAAAAAGAAACACACACACATACACATAAATATA [CACACA_site3807],6.98
21,TAAACATAAATATGCACACATATACAGATATTCATA [CACACA_site5471],7.04
22,TTTTACTTAAGACACACACACACAAAAAAAAAAAAA [CACACA_site6573],7.39
